The supplement of paper PMC3334620
The full ranking holds about 33,000 sequences; the median of “E-score (-0.5 to 0.5)” is about -0.054, and the highest 2% start at about 0.35. Some of the results follow.

Target: T1, Stb5 (UniProt P38699)
T1 sequence: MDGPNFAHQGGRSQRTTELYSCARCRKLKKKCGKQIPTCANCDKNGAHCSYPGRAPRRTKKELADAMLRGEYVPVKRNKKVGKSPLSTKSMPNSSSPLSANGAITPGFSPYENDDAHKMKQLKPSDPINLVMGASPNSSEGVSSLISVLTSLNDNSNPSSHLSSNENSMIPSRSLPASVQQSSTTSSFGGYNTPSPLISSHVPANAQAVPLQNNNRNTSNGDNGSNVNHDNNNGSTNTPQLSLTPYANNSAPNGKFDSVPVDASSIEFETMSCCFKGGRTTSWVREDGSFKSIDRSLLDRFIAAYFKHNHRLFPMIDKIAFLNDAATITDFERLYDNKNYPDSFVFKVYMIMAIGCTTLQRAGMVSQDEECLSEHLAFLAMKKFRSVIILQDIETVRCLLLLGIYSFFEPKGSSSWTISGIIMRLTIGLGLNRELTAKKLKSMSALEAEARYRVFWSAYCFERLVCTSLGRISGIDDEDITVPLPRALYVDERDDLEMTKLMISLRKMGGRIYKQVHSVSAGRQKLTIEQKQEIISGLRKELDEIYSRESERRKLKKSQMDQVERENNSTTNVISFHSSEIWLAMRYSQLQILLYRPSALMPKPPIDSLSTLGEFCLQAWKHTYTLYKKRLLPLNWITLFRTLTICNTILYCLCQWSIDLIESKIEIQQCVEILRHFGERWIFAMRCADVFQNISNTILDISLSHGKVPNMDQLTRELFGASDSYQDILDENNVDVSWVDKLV
Assay: PBM E-score (8-mer binding enrichment) (E-score (-0.5 to 0.5)); higher = stronger / more preferred TF binding; most listed sequences are background and not binding sites
Conditions: protein concentration: 200 nM; construct: GST-full length
In short: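 Each ungapped eight-base word and its reverse complement, pooled, received an E-score from the Universal PBM Analysis Suite. Underlying scans, normalised with masliner, recorded fluorescent anti-GST bound to GST-tagged yeast transcription factors. These were applied at about 100-200 nM to universal all-10-mer Agilent arrays double-stranded by primer extension.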

Sequence	PBM E-score
GTCCGAAA	0.259
ACACCCGT	0.162
GGGCTATA	0.0715
CGCAAGGA	-0.0543
CGTTAGAC	0.0433
ATTCGCAC	0.00083
CAAACTCG	-0.107
AGGCCGCG	0.292
AGTATGAG	-0.118
CAAATGAG	-0.17
GAACGGAA	0.0652
ACCGGAAT	0.136
GATAGAGA	0.0107
AATATTGG	-0.13
CGGATGCC	0.0962
AAAACGAA	-0.0215
AGCCCGTC	0.284
AATGGTTG	-0.0296
ACAGACGT	-0.141
GCCACCCC	-0.13
CACATATA	0.134
TGAAGTCA	-0.0878
CATTGATA	0.0233
CACGACAG	-0.114
GCCTATTA	-0.0797

Sequence	PBM E-score
CCCTGGAC	-0.207
AATTCTCC	0.328
CATGAACA	-0.0519
AGGAACCC	-0.0964
ACCGCACT	0.282
CCTATTTA	-0.0269
CAACAGGA	-0.233
AATAACAG	0.0452
AGTCGAAG	-0.17
ATACCCGC	0.336
CTACGGGA	0.125
ACCTCGCT	0.0111
CTTAAGGA	-0.0857
ACGTGGCG	-0.0164
ATGCTCTC	-0.145
GTTCGAAC	0.0601
AGGTGCGG	0.231
TATATAGA	-0.047
ATCGAAAG	-0.109
GGTGCACA	-0.0478
AAGACAGA	-0.187
AAACATTT	-0.192
CCCACGCA	-0.208
ATTAATCC	0.172
TCTGCTAA	-0.145

Sequence	PBM E-score
AGTTAATG	-0.0828
ACGTGGTC	-0.248
CTTGCTAC	-0.18
ACTGGATA	-0.08
AACCCCGT	0.448
ACACTTAA	-0.117
ATGTAGGG	0.0205
GATACTCC	0.146
AGCGAATC	-0.176
AAACAGTC	-0.229
CAGTATAA	0.0599
GCCTAGAC	-0.0806
CGAGTCGA	-0.17
TCGTTTCA	-0.0539
CGGGAGAG	-0.166
ACATTGCC	-0.0814
CTTGACGA	-0.187
GATACCAA	0.181
CATCGCGC	0.0713
GCCTACGC	-0.134
CTCGCAAC	-0.118
AATAATAG	0.0496
CAAAAAAG	-0.0163
ACGTGGTA	-0.144
AAAGTATG	-0.172

Sequence	PBM E-score
ATCTGTCC	0.113
CGGCTTAC	-0.034
AAGGAAAT	-0.156
CGCAGCAG	-0.0406
AGGCAGGA	-0.308
GTGCCGAA	0.236
CGAGAGTC	0.00804
AGTTGTAC	0.0567
AAGAACAG	-0.29
CCATGGAG	-0.164
CAAAGAAG	-0.0546
GACAGAAA	0.163
AGCGGGTC	0.18
GACAGCAC	0.0871
AAATTGAA	-0.246
AACTCGCA	-0.309
GCACATTA	0.0815
AGGAGGGG	-0.302
CTCACGAA	-0.0973
AAGAGAAC	-0.0874
ATATGGGA	-0.00398
CCTAGCCA	-0.226
TAGAGATA	0.0252
CCGACGTC	0.268
CTGGGCAC	-0.152

Sequence	PBM E-score
CATACTAA	-0.21
CTATTCTC	-0.022
ACTGATAA	-0.115
ACTCCTCT	-0.104
ATTGCTGA	-0.197
GATAGAAC	0.154
AGATCTTC	-0.184
ATCCGGAC	0.258
AAGAACGC	-0.0139
CTCGAGCC	-0.0853
ATTGGTTG	-0.309
ATAAAAAT	0.184
CTGTAATA	0.179
CCCGGGGA	0.252
ATTTACAC	0.0234
CCCCATTA	-0.289
GAATGTAC	-0.121
CCGGCCAG	0.229
GGATCAAC	0.0826
CAATGTAC	-0.19
GATGACTA	-0.194
ATACTAGC	-0.0323
AACGTTAA	0.111
ATTAGGAA	-0.0615
AGCGGACT	0.39

Sequence	PBM E-score
CGGCTAAC	0.0948
GATTTCCC	0.121
GAAAGTTC	-0.0628
GATCGAAA	0.025
AAGAGTTC	-0.221
GAAGATTC	-0.0122
TCCTTCGA	0.152
ATAAGGTA	-0.00169
GCTGCCGA	0.0951
CCGCCTAA	0.21
GTACTCTA	-0.229
GAACACTC	0.0983
CTTTCGCC	0.0347
ACAACGCT	-0.0427
AGTAGGTA	-0.199
TAACACAA	0.0222
AGACAAGA	-0.115
CGGTAGAC	0.128
AACGTCCT	-0.237
AATTGCGA	0.128
AATATCAA	-0.0438
AGCTTGGA	-0.203
ACAGGTCC	0.0999
ACGCTGCA	-0.14
CCGAGAAC	0.156

Sequence	PBM E-score
AAGCTCAT	-0.119
GCTCTCAC	-0.0463
CCTCACCC	-0.0298
AGGATCCA	-0.214
AACCTCTT	-0.0194
AACGCTAC	-0.00425
GCAAATCA	-0.0644
ATATCGTC	-0.0379
CTCCGCTA	0.349
AAGTCCGC	0.46
CGCCTGCC	-0.111
GCTACCGA	0.184
ACAGAACG	-0.0563
AGGTCCGG	0.382
AACTCCCA	-0.117
ACACCTTG	-0.0915
AGGCCTAA	-0.177
ATAATATG	0.024
CCCCTGTC	-0.207
CCGTTTTC	0.201
ACCTTGTA	-0.228
GTCGGTGA	0.374
GATCCCTA	0.00743
CACGAAAA	-0.139
CAAAACTA	-0.00581

Sequence	PBM E-score
AATCCTCA	-0.186
AAGCTGCC	-0.0664
GGATCGAA	0.115
AAATAGCG	0.0706
CAACCGTA	-0.155
CGCTATCA	0.3
GACGCACC	0.0726
AACTCCCC	0.0697
TCTACTCA	-0.12
CCTATTCA	-0.064
CACTTGGC	-0.194
CCGTAATC	0.0603
CCGTCGTA	0.261
CCTTAGAG	-0.176
CGAACTCG	-0.00972
AGGCGATG	-0.189
GAGAGGAC	-0.202
CCTCAGCA	-0.172
ACTCGCAG	-0.193
GAACTGTC	-0.099
TTATAAAA	0.119
AACAATGC	-0.134
TCTCCACA	-0.246
CAGAGGCC	-0.137
CACTGCGG	0.0873

Sequence	PBM E-score
GTATGGAC	0.14
GCGCACGA	-0.108
GGATATCA	0.131
AAGGACCC	0.0214
AAGACCCT	-0.233
ACGAGATA	-0.116
GAAAATCC	0.157
AGGCCTAG	-0.102
AACCCTAT	-0.244
AGTTCAAA	-0.156
CAGAATAA	-0.0172
ATAAATAG	0.0808
CTGCAGAC	0.0864
GCATTATA	0.105
GCTCAATA	-0.0372
CCAGATAC	-0.122
GGTGCGAC	0.173
CAATCTAC	-0.244
CTGAGTAC	-0.0401
GCTCGGCA	0.122
CGTCTAAA	-0.027
CCGGCATA	0.245
CTTTAGAC	-0.154
GTCTATTA	0.00744
CACCCGTG	-0.105

Sequence	PBM E-score
CGTGGTTC	0.0327
AATTCCCC	0.182
TCCTGTCA	-0.0975
CTAGGAAG	-0.298
AAGTTCGC	-0.248
ACTGCCCC	-0.19
GGAATGAA	0.101
AAGTACAT	-0.17
TCAGTAGA	-0.121
ACGCCGTC	0.405
ACTAATGC	0.051
AAGAACTG	-0.225
AGCCTGAT	-0.0692
ATACGCAC	-0.129
ATCGTCCA	-0.0552
GGCGTCGA	0.0581
CCGACCTC	0.229
TGTGGGAA	-0.16
CTCAGACA	-0.0761
AATCATTG	-0.314
AGCTACTC	-0.214
GCTACATA	-0.0356
CCACGACC	-0.07
CGGTCATC	0.135
AGCCACTA	-0.124

Sequence	PBM E-score
AAAATGGG	-0.11
CACATTAC	0.0555
AGCTCGGC	0.114
CACTATAG	-0.0425
GAGAAGGA	-0.258
ATATCCTA	0.0864
ACGTGCGG	0.288
CTCTTCTA	-0.157
GGATTTAC	0.322
CCCCACGG	0.209
GAATCTCA	-0.131
CTCAGATC	-0.106
GAAGGTAA	0.102
CCAAAACG	-0.139
CCACAGGA	0.0259
AAGAGCCC	0.191
TACACCAA	-0.128
AATAGTCT	-0.132
TCGCAGAA	-0.151
AGGCCACT	-0.189
ACAGTTTC	-0.155
ATGTCGGC	0.228
TACCAAGA	0.0547
AACTGCCC	-0.11
CCCCAGCA	-0.103

Sequence	PBM E-score
GCAGTTGA	-0.177
CACCCGAC	0.175
CTGGCGTC	-0.17
AAGCGCCA	-0.0397
CCTTTTCA	-0.0922
ATTCCCTA	0.0201
AGTCCAAA	-0.127
ATTGTTGC	-0.0776
ACTTCAAT	-0.0301
AAGCTCCC	-0.218
GGTTATGA	-0.156
CAGGCTCA	-0.382
GGTGATCA	0.0514
GGCTAAGA	-0.00102
AACCAGTT	-0.195
AGCGCCGG	0.376
AGACATTG	-0.319
ACGGAGTA	0.224
TACTGAAA	0.0281
GCCCCGAC	0.371
CGTACACC	0.217
ACGCGCGT	-0.126
AAAGGGCT	-0.124
AGCCTCGG	0.0711
AGATGTCA	0.00393

Sequence	PBM E-score
ACGTACAC	-0.132
TATTATAA	0.142
AGCCATAG	-0.371
AGTGGTGA	0.102
CCGGACGC	0.286
ACAAAACA	-0.184
ATGTAGTG	-0.244
CTCACAGA	-0.314
GTTATAAA	0.21
GTTAGTAA	-0.134
AAGACTTG	-0.158
AGTTGCAG	-0.175
ACTTGATA	0.00748
CTGCGCCC	-0.0749
CGATTGCG	0.106
CCTTTACC	0.0697
AAATAATC	0.0386
ACGCGTTC	-0.105
TGGGCAAA	-0.127
CGACTCCG	0.252
AAAGCGCA	0.113
CTAAAATA	0.0941
GAGCCATC	-0.246
CCACGAAA	-0.155
CCCTCCCG	-0.028

Sequence	PBM E-score
AACTCCCG	0.248
TTACTCAA	0.0261
CATGCCAA	-0.213
ATGAAAGA	-0.0982
ACTCGGCC	0.139
CTTCCCCC	-0.119
ATGCATAC	-0.308
CGAAACGA	0.11
AAGTTTTG	-0.0961
GCGGGCGA	0.0564
AGATCTAC	-0.195
ATAGATGC	0.0432
CAGTCGGA	0.292
CTGAGTGC	-0.153
CTTGGTTA	0.0276
CTACTAAA	0.0158
GACCCGTA	0.0709
CCGGGCCA	0.0869
GTAAAGCA	-0.195
